Test results: paper PMC12136788
Some of the results follow.

T1: UNK ZnF1-6 (called full-length) (human, UniProt Q9C0B0 30-357)
T1 sequence: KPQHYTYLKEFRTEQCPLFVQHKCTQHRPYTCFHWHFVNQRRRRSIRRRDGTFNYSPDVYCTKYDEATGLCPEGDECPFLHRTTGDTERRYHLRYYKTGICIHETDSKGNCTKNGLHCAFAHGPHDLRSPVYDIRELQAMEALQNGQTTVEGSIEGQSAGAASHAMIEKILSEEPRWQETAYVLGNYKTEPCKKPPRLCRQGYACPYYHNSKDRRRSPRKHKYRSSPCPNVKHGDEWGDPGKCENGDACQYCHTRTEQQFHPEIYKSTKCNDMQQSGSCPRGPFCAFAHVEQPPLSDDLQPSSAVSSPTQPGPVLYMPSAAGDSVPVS

B1: chr14:69053859:69055611:-|CDS|ENSG00000139990|control|control|control (ssRNA)
RNA: GGGAGUUCUACAGUCCGACGAUCUGUGAGACCCCCAAUGCUGGAACAAGAGAGGACCCCACUGACACCCCAGCCACAGAUAGUAGCAGGGCUGUUCAUGGCCACAGUGGCCUCAAAAGGCAACGAAUUGAAUUGGAAGAUACACAACAGAGGAUUGAGCAUCA
B2: chr15:69271217:69271318:+|3pUTR|ENSG00000138604|msi1|total|mutant (ssRNA)
RNA: GGGAGUUCUACAGUCCGACGAUCGCAACAGCAAGUUGAUUUCUUGUGAUCCCAGAAUUUUCUAAGAGGAUGAGUUGAAUCUACCGCAGCAUUGUCAGUACAGACCAGUGGUUCUCAAACUUUAAAAUGCCUCAGCAUCACUUGCAACAGAGGAUUGAGCAUCA
B3: chr1:154584646:154584747:-|3pUTR|ENSG00000160710|unk|total|mutant (ssRNA)
RNA: GGGAGUUCUACAGUCCGACGAUCAUGCUCCAGUGACAGAUGGAUCCGGGUGUGUCAUACCCGGGUGUGAGAGAGGCCGGUCGCCGCAUUCCUCAUCACAUGGUCAGGGGAUUUUUUUUUCUCCUUUUUUUUUCUUUUUAAGCCCAACAGAGGAUUGAGCAUCA
B4: chr6:35869508:35869609:-|CDS|ENSG00000096063|unk|FALSE|unique (ssRNA)
RNA: GGGAGUUCUACAGUCCGACGAUCGACACCAUGGUGUGCCAGUCUUCCUCAACUGUAGGUCAGUCAUUCAGUGAACAACACAUUAGCCAACUUCAAGAAAGCAUUCGGGCAGAGAUACCCUGUGAAGAUGAACAAGAGCAAGAACAACAGAGGAUUGAGCAUCA
B5: chr1:184691659:184691688:-|3pUTR|ENSG00000116406|msi1_unk|total|mutant (ssRNA)
RNA: GGGAGUUCUACAGUCCGACGAUCCUCCAACGUUGUAAUUACAACUCUACAUUCAUUUACUUACUUGACAUACUGCCACAAAGCCGUUUUUGAGUUCAUUAAAAAUUCCAAAGGCAUCCGUUGUUUUUUUUUUUUUCCGUGUUUCAACAGAGGAUUGAGCAUCA
B6: chr7:66152395:66152486:+|3pUTR|ENSG00000241258|msi1_unk|FALSE|overlapping (ssRNA)
RNA: GGGAGUUCUACAGUCCGACGAUCCGUUGAGAGGAUUGUUUAUUUGAUUUUUAUCCUCAUCCCAGCAGGCCUGGCUUUGUGGUUAGUUGGGUACAUCACAAAAAUAAGUUAAAAAGAAAUAUUUGUGCCUUGGGGAGAAGAAACCAACAGAGGAUUGAGCAUCA
B7: chr17:51192749:51193016:-|CDS|ENSG00000011258|control|control|control (ssRNA)
RNA: GGGAGUUCUACAGUCCGACGAUCUGGAUGGGAAGAAGAGUAUGAUCAGUGGGUAGACUGUGAGUCACCUGACCUCUAUCCUGUAGGGUGGUGUCAGUUAACUGGAUAUCAACUACAGCCUCCAGCAUCACAGUGUAAGUUGGUCAACAGAGGAUUGAGCAUCA
B8: chr7:151349087:151349194:+|CDS|ENSG00000013374|unk|FALSE|unique (ssRNA)
RNA: GGGAGUUCUACAGUCCGACGAUCCCUUGCUAAGCAGUACUCUGACAGACUAGAAUGCUGUGAAAAUGAAGUAGAAAAGGUAAUAGAAGAAAUACGUUGCAAGGCAAUUGAGCGUGGAACAGGAAAUGACAAUUAUAGAACAACCAACAGAGGAUUGAGCAUCA
B9: chr1:42926584:42926685:-|3pUTR|ENSG00000117394|msi1|FALSE|unique (ssRNA)
RNA: GGGAGUUCUACAGUCCGACGAUCGCCUGAGGGUGGAGACUAAGCCCUGUCGAGACACUUGCCUUCUUCACCCAGCUAAUCUGUAGGGCUGGACCUAUGUCCUAAGGACACACUAAUCGAACUAUGAACUACAAAGCUUCUAUCCAACAGAGGAUUGAGCAUCA
B10: chr6:158785413:158785514:-|CDS|ENSG00000092820|msi1|FALSE|unique (ssRNA)
RNA: GGGAGUUCUACAGUCCGACGAUCGAGCUCAUCCAGGACAUCACCCAGAAACUUUUCUUCCUCCAAGUGAAGGAAGGAAUCCUUAGCGAUGAGAUCUACUGCCCCCCUGAGACUGCCGUGCUCUUGGGGUCCUACGCUGUGCAGCAACAGAGGAUUGAGCAUCA
B11: chr17:35009752:35009853:-|3pUTR|ENSG00000092871|msi1|FALSE|unique (ssRNA)
RNA: GGGAGUUCUACAGUCCGACGAUCAUUCAGCUACUCAGUUCCUCUGUAAAACAGGUCUAUGUAUGUGCAAUUCAGCUAAGAUCUAGCAGUAACUUAAGGGCAGAAGCUGGCUCUCUACUUACAACCUGCUUUCUCUGCUGAAGCCAACAGAGGAUUGAGCAUCA
B12: chr10:26980575:26980839:-|three_prime_utr|ENSG00000107890|control|control|control (ssRNA)
RNA: GGGAGUUCUACAGUCCGACGAUCGCUUACUCCGACCUCUCUGAACUUCCUGGACCAGAUCUGUUUCCUCUGCCUGCAUGCUCUAGCCUACCAUCUUCCUCUCCUUGUCUGCUACUCACUCAACAGAAGGCAACAGGGUGGUCUCAACAGAGGAUUGAGCAUCA
B13: chr2:176131361:176131462:+|CDS|ENSG00000175879|unk|FALSE|unique (ssRNA)
RNA: GGGAGUUCUACAGUCCGACGAUCGGAAUUUCUUUUUAACCCCUAUCUGACCAGGAAAAGAAGAAUCGAGGUUUCCCACGCCCUAGCCCUCACCGAGAGACAGGUAAAAAUCUGGUUCCAGAACAGGAGAAUGAAAUGGAAAAACAACAGAGGAUUGAGCAUCA
B14: chr3:120396629:120396730:-|3pUTR|ENSG00000163430|msi1|total|mutant (ssRNA)
RNA: GGGAGUUCUACAGUCCGACGAUCGCCUUCAUUUCCCGGAGUGCUUUAAGAGAAACUGUAAAUGGUGCUCUGGGGCUGGAGGCCCGUAAGGAAACUGCAUCACGAUUGAAAGAGGAACAGACCCAAAUCUGAACCUCUUUUGAGCAACAGAGGAUUGAGCAUCA
B15: chr8:23842656:23842757:-|3pUTR|ENSG00000159167|msi1|total|mutant (ssRNA)
RNA: GGGAGUUCUACAGUCCGACGAUCCCCCAAACUUAUGGACACUGCCUCCGCCUCUUGGAAAUCAGGCCGACCAUAUUCUAAGUCCGACUCUUCCCCUCCCUCCCACACUUCCCACCCCCAGGCAAGGCUGACUUCUCUGAAUCACAACAGAGGAUUGAGCAUCA
B16: chr10:63214216:63214317:-|CDS|ENSG00000171988|unk|total|mutant (ssRNA)
RNA: GGGAGUUCUACAGUCCGACGAUCUAAGCUGCAUAAGCGAAGUCCACCUCCAGAGACUAUAAAAUCUAAACUUAAUACUUCAGCCGAUACUCACAAGAUAAAAUCCAGCCCAUCACCUGAAGUUGUUAAACCCAAAAUAACUCACAACAGAGGAUUGAGCAUCA
B17: chr5:136975339:136975545:-|3pUTR|ENSG00000152377|msi1|total|mutant (ssRNA)
RNA: GGGAGUUCUACAGUCCGACGAUCAGAGCCCAUCAAAUCCUGAGUGUCAGUUUGUUGUCCCUAUUGCCGAUGAAACCGUGAUGCCGCAAAAACCCCGUAAAUUCUGAAUGCUUUUCCACGCCGACUUAUCUGGAAUGUGAACACCAACAGAGGAUUGAGCAUCA
B18: chr2:210678210:210678332:+|3pUTR|ENSG00000021826|unk|FALSE|unique (ssRNA)
RNA: GGGAGUUCUACAGUCCGACGAUCUUCAUCCAUUUACUAAUACUGUAUUUUUGGUGGACUAGGCUUGCCUAUGUGCUUAUGUGUAGCUUUUUACUUUUUAUGGUGCUGAUUAAUGGUGAUCAAGGUAGGAAAAGUUGCUGUUCUCAACAGAGGAUUGAGCAUCA
B19: chr9:72354534:72354635:-|3pUTR|ENSG00000107372|msi1|total|mutant (ssRNA)
RNA: GGGAGUUCUACAGUCCGACGAUCGUCCCCGUUUUUACUUUUAUUCUUAAAGCAUUCAGUUUUGCUUUCAAUUUUAUGUACCUCCGUUCUGAGUCCGACCUGCAGAUGUGUACAGACCGUUCAUAUUUAUGUAUUGCACAUAAUCAACAGAGGAUUGAGCAUCA
B20: chr15:63071210:63071313:+|3pUTR|ENSG00000140416|unk|FALSE|unique (ssRNA)
RNA: GGGAGUUCUACAGUCCGACGAUCCCUUAAAUGCAAUUUAUUUACUUUUACCACUGUCACAGAAACAUCCACAAGAUACCAGCUAGGUCAGGGGGUGGGGAAAACACAUACAAAAAGGCAAGCCCAUGUCAGGGCGAUCCUGGUCAACAGAGGAUUGAGCAUCA
B21: ENSG00000118705:stop:overlap|stop_codon|ENSG00000118705|stop_codon|NA|stop_codon (ssRNA)
RNA: GGGAGUUCUACAGUCCGACGAUCUGACGUUUCUGGCUGGCAAUCGGAUGCUGGCCCAGCAGGCAGUCAAGAGAACAGCACAUUAGUUCCAGAAGAAAGAUGGAAAUUCUGAAAACUGAAUGUCAAGAAAAGGAGUCAAGAACACAACAGAGGAUUGAGCAUCA
B22: chr9:135932998:135933099:-|3pUTR|ENSG00000130560|unk|FALSE|unique (ssRNA)
RNA: GGGAGUUCUACAGUCCGACGAUCGCUGCUUGAAUUGCCGUGUAGACAUUUGCUUGGAGAGUCCACUUGUUAUUUGACGGAGGUAGGUUUCAACCCAGAGUUAAUGUCAAGCAUGCUAAUUUAACUAGUCACUCACAGAUGACUCAACAGAGGAUUGAGCAUCA

Each binder was assayed against T1, UNK ZnF1-6 (called full-length) (assay: nsRBNS (natural sequence RNA bind-n-seq); RBNS binding buffer (assumed for nsRBNS): 25 mM Tris pH 7.5, 150 mM KCl, 3 mM MgCl2, 0.01% Triton X-100, 500 ug/ml BSA, 20 U/ml SUPERase-In, 4 C; UNK is unkempt and MSI1 is Musashi-1; names of the RNAs are library labels; protein concentration not given here; high values mean tight binding).

Binder | binding signal
B1 | 0.823 enrichment R
B2 | 0.375 enrichment R
B3 | 1.34 enrichment R
B4 | 0.535 enrichment R
B5 | 0.805 enrichment R
B6 | 0.835 enrichment R
B7 | 0.594 enrichment R
B8 | 1.37 enrichment R
B9 | 0.589 enrichment R
B10 | 0.521 enrichment R
B11 | 0.495 enrichment R
B12 | 0.798 enrichment R
B13 | 0.607 enrichment R
B14 | 0.319 enrichment R
B15 | 1.07 enrichment R
B16 | 0.3 enrichment R
B17 | 0.528 enrichment R
B18 | 1.02 enrichment R
B19 | 0.931 enrichment R
B20 | 1.79 enrichment R
B21 | 0.739 enrichment R
B22 | 0.638 enrichment R
